Here are results for 11 molecules from patent US20240076343A1.

Bounds are passed on as bounds.

Assay in all cases: cell-based or functional assay
Test [1] addresses intermediate affinity hIL-2 receptor complex (IL-2Rβγ) (human) (UniProt P14784).
Test [2] addresses intermediate affinity hIL-2 receptor (hIL-2Rβγ) on TF1+IL-2Rβ cells (human) (UniProt P14784).
In test [3] the target is high-affinity hIL-2 receptor (IL-2Rαβγ) on NK-92 cells (human) (UniProt P01589).
The target of test [4] is high-affinity hIL-2 receptor (IL-2Rαβγ) (human) (UniProt P01589).

B1: 1H3-hIgG1-L6-hIL-2 (R38E) (protein)
heavy: EVQLVESGGGLVQPGRSLKLSCAVSGFTFSDYAMAWVRQAPKKGLEWVATISYDGSRTYYRDSVKGRFTISRDNAKITLYLQMDSLRSEDTATYYCARHGSGYFDYWGQGVMVTVSS[not shown - about 450 residues with a human IgG1 Fc and changes]
light: DTVLTQSPALAVSPGERVTISCRASESVRTGVHWYQQKPGQQPKLLIYGASNLESGVPARFSGSGSGTDFTLTIDPVEADDTATYFCQQSWNDPFTFGSGTKLEIKRTVAAPSVFIFPPSDEQLKSGTASVVCLLNNFYPREAKVQWKVDNALQSGNSQESVTEQDSKDSTYSLSSTLTLSKADYEKHKVYACEVTHQGLSSPVTKSFNRGEC
With B1, the Fold change from rhIL-2 (TF1 + IL-2Rβ), pSTAT5 titration in test [1] came to 0 fold. Besides, the Fold change from rhIL-2 (TF1 + IL-2Rβ) in test [2] came out at 1 fold. For the same molecule, the Fold change from rhIL-2 (NK-92) in test [3] was 7 fold.

B2: 1H3-hIgG1-L6-hIL-2 (R38E/I92V) (protein)
heavy: EVQLVESGGGLVQPGRSLKLSCAVSGFTFSDYAMAWVRQAPKKGLEWVATISYDGSRTYYRDSVKGRFTISRDNAKITLYLQMDSLRSEDTATYYCARHGSGYFDYWGQGVMVTVSS[not shown - about 450 residues with a human IgG1 Fc and changes]
light: DTVLTQSPALAVSPGERVTISCRASESVRTGVHWYQQKPGQQPKLLIYGASNLESGVPARFSGSGSGTDFTLTIDPVEADDTATYFCQQSWNDPFTFGSGTKLEIKRTVAAPSVFIFPPSDEQLKSGTASVVCLLNNFYPREAKVQWKVDNALQSGNSQESVTEQDSKDSTYSLSSTLTLSKADYEKHKVYACEVTHQGLSSPVTKSFNRGEC
In the case of B2, the Fold change from hIL-2 (TF1 + IL-2Rβ), pSTAT5 fixed conc. in test [1] turned out to be 1 fold. For the same molecule, the Fold change from hIL-2 (NK-92), pSTAT5 fixed conc. in test [4] was found to be 21 fold.

B3: 1H3-hIgG1-L6-hIL-2 (D20S) (protein)
heavy: EVQLVESGGGLVQPGRSLKLSCAVSGFTFSDYAMAWVRQAPKKGLEWVATISYDGSRTYYRDSVKGRFTISRDNAKITLYLQMDSLRSEDTATYYCARHGSGYFDYWGQGVMVTVSS[not shown - about 450 residues with a human IgG1 Fc and changes]
light: DTVLTQSPALAVSPGERVTISCRASESVRTGVHWYQQKPGQQPKLLIYGASNLESGVPARFSGSGSGTDFTLTIDPVEADDTATYFCQQSWNDPFTFGSGTKLEIKRTVAAPSVFIFPPSDEQLKSGTASVVCLLNNFYPREAKVQWKVDNALQSGNSQESVTEQDSKDSTYSLSSTLTLSKADYEKHKVYACEVTHQGLSSPVTKSFNRGEC
Regarding B3, the Fold change from rhIL-2 (TF1 + IL-2Rβ), pSTAT5 titration in test [1] is 277 fold. Further, the Fold change from rhIL-2 (NK-92), pSTAT5 titration in test [4] came out at 28 fold. In test [3], this molecule registered a Fold change from hIL-2 (NK-92) of 4 fold and a Fold change from rhIL-2 (NK-92) of 1 fold.

B4: 1H3-hIgG1-L6-hIL-2 (D20W) (protein)
heavy: EVQLVESGGGLVQPGRSLKLSCAVSGFTFSDYAMAWVRQAPKKGLEWVATISYDGSRTYYRDSVKGRFTISRDNAKITLYLQMDSLRSEDTATYYCARHGSGYFDYWGQGVMVTVSS[not shown - about 450 residues with a human IgG1 Fc and changes]
light: DTVLTQSPALAVSPGERVTISCRASESVRTGVHWYQQKPGQQPKLLIYGASNLESGVPARFSGSGSGTDFTLTIDPVEADDTATYFCQQSWNDPFTFGSGTKLEIKRTVAAPSVFIFPPSDEQLKSGTASVVCLLNNFYPREAKVQWKVDNALQSGNSQESVTEQDSKDSTYSLSSTLTLSKADYEKHKVYACEVTHQGLSSPVTKSFNRGEC
As for B4, the Fold change from rhIL-2 (TF1 + IL-2Rβ), pSTAT5 titration in test [1] is over 10000 fold. Further, the Fold change from rhIL-2 (TF1 + IL-2Rβ) in test [2] is over 10000 fold. The Fold change from hIL-2 (NK-92) in test [3] amounted to 16 fold.

B5: 1H3-hIgG1-L6-hIL-2 (N88D) (protein)
heavy: EVQLVESGGGLVQPGRSLKLSCAVSGFTFSDYAMAWVRQAPKKGLEWVATISYDGSRTYYRDSVKGRFTISRDNAKITLYLQMDSLRSEDTATYYCARHGSGYFDYWGQGVMVTVSS[not shown - about 450 residues with a human IgG1 Fc and changes]
light: DTVLTQSPALAVSPGERVTISCRASESVRTGVHWYQQKPGQQPKLLIYGASNLESGVPARFSGSGSGTDFTLTIDPVEADDTATYFCQQSWNDPFTFGSGTKLEIKRTVAAPSVFIFPPSDEQLKSGTASVVCLLNNFYPREAKVQWKVDNALQSGNSQESVTEQDSKDSTYSLSSTLTLSKADYEKHKVYACEVTHQGLSSPVTKSFNRGEC
B5: the Fold change from rhIL-2 (TF1 + IL-2Rβ), pSTAT5 titration in test [1] came out at 130 fold. In test [4], the Fold change from rhIL-2 (NK-92), pSTAT5 titration came to 21 fold. Also, in test [3], the Fold change from hIL-2 (NK-92) is 2 fold and the Fold change from rhIL-2 (NK-92) worked out at 0 fold.

B6: 1H3-hIgG1-L6-hIL-2 (N88Y) (protein)
heavy: EVQLVESGGGLVQPGRSLKLSCAVSGFTFSDYAMAWVRQAPKKGLEWVATISYDGSRTYYRDSVKGRFTISRDNAKITLYLQMDSLRSEDTATYYCARHGSGYFDYWGQGVMVTVSS[not shown - about 450 residues with a human IgG1 Fc and changes]
light: DTVLTQSPALAVSPGERVTISCRASESVRTGVHWYQQKPGQQPKLLIYGASNLESGVPARFSGSGSGTDFTLTIDPVEADDTATYFCQQSWNDPFTFGSGTKLEIKRTVAAPSVFIFPPSDEQLKSGTASVVCLLNNFYPREAKVQWKVDNALQSGNSQESVTEQDSKDSTYSLSSTLTLSKADYEKHKVYACEVTHQGLSSPVTKSFNRGEC
With B6, the Fold change from rhIL-2 (TF1 + IL-2Rβ), pSTAT5 titration in test [1] is over 10000 fold. The Fold change from rhIL-2 (TF1 + IL-2Rβ) in test [2] was over 10000 fold. In test [3], this molecule gave a Fold change from hIL-2 (NK-92) of 22 fold.

B7: 1H3-hIgG1-L6-hIL-2 (D20I) (protein)
heavy: EVQLVESGGGLVQPGRSLKLSCAVSGFTFSDYAMAWVRQAPKKGLEWVATISYDGSRTYYRDSVKGRFTISRDNAKITLYLQMDSLRSEDTATYYCARHGSGYFDYWGQGVMVTVSS[not shown - about 450 residues with a human IgG1 Fc and changes]
light: DTVLTQSPALAVSPGERVTISCRASESVRTGVHWYQQKPGQQPKLLIYGASNLESGVPARFSGSGSGTDFTLTIDPVEADDTATYFCQQSWNDPFTFGSGTKLEIKRTVAAPSVFIFPPSDEQLKSGTASVVCLLNNFYPREAKVQWKVDNALQSGNSQESVTEQDSKDSTYSLSSTLTLSKADYEKHKVYACEVTHQGLSSPVTKSFNRGEC
With B7, the Fold change from rhIL-2 (TF1 + IL-2Rβ), pSTAT5 titration in test [1] is over 10000 fold. Further, in test [2], the Agonistic Activity (TF1 + IL-2Rβ) was determined as 50% and the Fold change from rhIL-2 (TF1 + IL-2Rβ) came to 8 fold. This molecule returned a Fold change from hIL-2 (NK-92) in test [3] of 12 fold.

B8: 1H3-hIgG1-L6-hIL-2 (N88R) (protein)
heavy: EVQLVESGGGLVQPGRSLKLSCAVSGFTFSDYAMAWVRQAPKKGLEWVATISYDGSRTYYRDSVKGRFTISRDNAKITLYLQMDSLRSEDTATYYCARHGSGYFDYWGQGVMVTVSS[not shown - about 450 residues with a human IgG1 Fc and changes]
light: DTVLTQSPALAVSPGERVTISCRASESVRTGVHWYQQKPGQQPKLLIYGASNLESGVPARFSGSGSGTDFTLTIDPVEADDTATYFCQQSWNDPFTFGSGTKLEIKRTVAAPSVFIFPPSDEQLKSGTASVVCLLNNFYPREAKVQWKVDNALQSGNSQESVTEQDSKDSTYSLSSTLTLSKADYEKHKVYACEVTHQGLSSPVTKSFNRGEC
As for B8, in test [2], the Agonistic Activity (TF1 + IL-2Rβ) was 80% and the Fold change from rhIL-2 (TF1 + IL-2Rβ) was 959 fold. In addition, the Fold change from hIL-2 (NK-92) in test [3] was found to be 3 fold.

B9: 1H3-hIgG1-L6-hIL-2 (D20F) (protein)
heavy: EVQLVESGGGLVQPGRSLKLSCAVSGFTFSDYAMAWVRQAPKKGLEWVATISYDGSRTYYRDSVKGRFTISRDNAKITLYLQMDSLRSEDTATYYCARHGSGYFDYWGQGVMVTVSS[not shown - about 450 residues with a human IgG1 Fc and changes]
light: DTVLTQSPALAVSPGERVTISCRASESVRTGVHWYQQKPGQQPKLLIYGASNLESGVPARFSGSGSGTDFTLTIDPVEADDTATYFCQQSWNDPFTFGSGTKLEIKRTVAAPSVFIFPPSDEQLKSGTASVVCLLNNFYPREAKVQWKVDNALQSGNSQESVTEQDSKDSTYSLSSTLTLSKADYEKHKVYACEVTHQGLSSPVTKSFNRGEC
In the case of B9, in test [1], the Fold change from rhIL-2 (TF1 + IL-2Rβ), pSTAT5 titration is over 10000 fold. Besides, in test [2], the Fold change from rhIL-2 (TF1 + IL-2Rβ) was over 10000 fold. Moreover, the Fold change from hIL-2 (NK-92) in test [3] was 17 fold.

B10: 1H3-hIgG1-L6-hIL-2 (D84A) (protein)
heavy: EVQLVESGGGLVQPGRSLKLSCAVSGFTFSDYAMAWVRQAPKKGLEWVATISYDGSRTYYRDSVKGRFTISRDNAKITLYLQMDSLRSEDTATYYCARHGSGYFDYWGQGVMVTVSS[not shown - about 450 residues with a human IgG1 Fc and changes]
light: DTVLTQSPALAVSPGERVTISCRASESVRTGVHWYQQKPGQQPKLLIYGASNLESGVPARFSGSGSGTDFTLTIDPVEADDTATYFCQQSWNDPFTFGSGTKLEIKRTVAAPSVFIFPPSDEQLKSGTASVVCLLNNFYPREAKVQWKVDNALQSGNSQESVTEQDSKDSTYSLSSTLTLSKADYEKHKVYACEVTHQGLSSPVTKSFNRGEC
In the case of B10, the Fold change from rhIL-2 (TF1 + IL-2Rβ), pSTAT5 titration in test [1] came out at 14 fold. Also, the Fold change from rhIL-2 (TF1 + IL-2Rβ) in test [2] was determined as 21 fold. Also, the Fold change from hIL-2 (NK-92) in test [3] is 1 fold.

B11: 1H3-hIgG1-L6-hIL-2 (D84K) (protein)
heavy: EVQLVESGGGLVQPGRSLKLSCAVSGFTFSDYAMAWVRQAPKKGLEWVATISYDGSRTYYRDSVKGRFTISRDNAKITLYLQMDSLRSEDTATYYCARHGSGYFDYWGQGVMVTVSS[not shown - about 450 residues with a human IgG1 Fc and changes]
light: DTVLTQSPALAVSPGERVTISCRASESVRTGVHWYQQKPGQQPKLLIYGASNLESGVPARFSGSGSGTDFTLTIDPVEADDTATYFCQQSWNDPFTFGSGTKLEIKRTVAAPSVFIFPPSDEQLKSGTASVVCLLNNFYPREAKVQWKVDNALQSGNSQESVTEQDSKDSTYSLSSTLTLSKADYEKHKVYACEVTHQGLSSPVTKSFNRGEC
As for B11, the Fold change from rhIL-2 (TF1 + IL-2Rβ), pSTAT5 titration in test [1] was determined as 195 fold. In test [4], this molecule gave a Fold change from rhIL-2 (NK-92), pSTAT5 titration of 14 fold. In test [3], this molecule showed a Fold change from hIL-2 (NK-92) of 2 fold and a Fold change from rhIL-2 (NK-92) of 4 fold.
